Laboratory results published in PMC6919601, “Identification of Plasmodium dipeptidyl aminopeptidase allosteric inhibitors by high throughput screening” (PLoS ONE, 2019).
In all, about 110,000 compounds went through this assay and about 230 (0.21%) showed an effect of 50% or more. This is one part of the list.

The compounds below were run against DPAP1 (Plasmodium falciparum, UniProt Q8IIJ9) (assay: primary screen, percent inhibition; read by cleavage of a fluorogenic dipeptide substrate; higher = more effect of the substance).
Parameters: species or system P. falciparum D10 trophozoite lysates; single well
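Also: 30 min substrate incubation versus DMSO and 10 µM JCP410 controls.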

Sequence of DPAP1 (Q8IIJ9 whole entry, looked up): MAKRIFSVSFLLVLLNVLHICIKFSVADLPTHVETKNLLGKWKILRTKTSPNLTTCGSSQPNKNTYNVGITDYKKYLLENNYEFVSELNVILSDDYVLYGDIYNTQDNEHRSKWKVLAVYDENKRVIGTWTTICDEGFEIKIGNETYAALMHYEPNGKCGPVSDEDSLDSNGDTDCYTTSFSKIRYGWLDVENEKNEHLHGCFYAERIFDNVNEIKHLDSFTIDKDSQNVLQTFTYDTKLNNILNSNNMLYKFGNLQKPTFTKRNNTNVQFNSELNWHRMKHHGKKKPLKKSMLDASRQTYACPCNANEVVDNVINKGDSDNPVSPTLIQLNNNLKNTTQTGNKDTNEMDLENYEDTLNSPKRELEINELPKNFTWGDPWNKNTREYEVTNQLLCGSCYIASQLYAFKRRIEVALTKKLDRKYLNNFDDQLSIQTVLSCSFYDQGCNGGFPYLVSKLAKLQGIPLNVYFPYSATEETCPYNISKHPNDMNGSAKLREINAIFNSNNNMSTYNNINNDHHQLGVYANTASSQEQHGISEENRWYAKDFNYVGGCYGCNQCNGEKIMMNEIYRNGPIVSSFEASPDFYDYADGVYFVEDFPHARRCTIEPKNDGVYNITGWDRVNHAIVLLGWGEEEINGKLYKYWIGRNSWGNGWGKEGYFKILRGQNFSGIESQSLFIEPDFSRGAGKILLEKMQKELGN

Structure (SMILES) | % Inhibition @ 10 uM [%]
COCCCn1c(=O)c2sccc2n2c(CCCC(=O)N(C)Cc3ccco3)nnc12 | 0.351
CC1CCCC(NC(=O)c2ccc(N3CCOCC3)cc2)(C(=O)NCC#N)C1 (stereo not drawn) | 3.1
O=C(Nc1nnc(Cc2ccc(F)cc2)s1)C1CCCCC1 | -0.142
COc1ccc(-c2csc3ncn(Cc4cccc(C)c4)c(=O)c23)cc1OC | -1.6
O=C(Nc1ccccn1)c1ccc(F)cc1 | 0.275
C=Cc1ccc(Cn2c(C(=O)O)c(CNCc3ccc(OC)cc3)c3ccccc32)cc1 | -5.05
O=C(Nc1ccc(I)cc1)C(c1ccccc1)c1ccccc1 | -2.03
Cc1ccccc1OCC(=O)Nc1ccccn1 | -0.872
CCOC(=O)c1ccc(S(=O)(=O)NC2CCCCCCC2)n1C | 3.07
COc1ccc(NS(=O)(=O)c2ccc(NC(=O)c3ccccc3)cc2)nn1 | 4.42
Clc1cncc(N2CCN(c3ccccc3)CC2)n1 | 6.79
COc1ccc(-c2csc(/C(C#N)=C/c3ccccc3OC)n2)cc1 | -4.21
CC(=O)Nc1ccc(NC(=O)c2ccncc2)cc1 | 8.68
Cc1cccc(C)c1NC(=O)C(C)(C)N(C)C(=O)CN1C(=O)c2ccccc2C1=O | -5.51
Cc1ccc(C)c(CN(C)CC(O)c2ccccc2)c1 (stereo not drawn) | -3.5
CCc1c(CN2CCN(Cc3ccccc3)CC2)csc1C | 2.03
COc1ccc(CNC(=O)c2cnn3c(C)c(Cc4cc(C)ccc4C)c(C)nc23)cc1 | -0.519
COc1cccc(C2CC(C(F)(F)F)n3ncc(C(=O)NCCCn4ccnc4)c3N2)c1 (stereo not drawn) | -1.72
Cc1c(C=C2C(=O)NC(=O)NC2=O)cc(-c2ccccc2)n1-c1ccccc1 | 6.94
Cc1ccc(NC(=O)CNc2ccc(OC(C)C)cc2)c(C)c1 | 3.97
O=c1oc2cc(O)ccc2cc1-c1nc2ccccc2[nH]1 | 4.61
COCCN(Cc1ccco1)C(=O)c1c(C)oc2ncn(C)c(=O)c12 | -0.171
COc1cc(S(=O)(=O)N2CC=C(c3ccc(F)cc3)CC2)ccc1-n1cnnn1 | 0.635
CN(Cc1ccccc1)S(=O)(=O)c1ccc(N2C(=O)c3ccccc3C2=O)cc1 | 1.65
CC(C)(C)NC(=O)Cc1coc2ccc3ccccc3c12 | 2.95
CCOc1ccc(NC(=O)CC2SC(Nc3ccccc3C)=NC2=O)cc1 (stereo not drawn) | -10.6

Structure (SMILES) | % Inhibition @ 10 uM [%]
N#Cc1ccccc1NC(=O)COc1ccc2ccccc2c1Br | -1.06
Clc1ccc(Cc2noc(C34CC5CC(CC(C5)C3)C4)n2)cc1 | 5.75
COc1ccc(CNC(=O)C2CCC(C/N=c3/c(N4CCC(C)CC4)c(O)c3=O)CC2)cc1 (stereo not drawn) | 1.02
COc1cccc(C2C3=C(O)CC(C)(C)CC3=NC(C)=C2C(=O)Nc2nc3ccccc3s2)c1 (stereo not drawn) | 2.7
CSc1nc2c(c(=O)[nH]c(=O)n2C)n1Cc1ccccc1Cl | -4.43
COc1cc(OC)c(OC)cc1CN(C)C1CCN(C)CC1 | -2.81
O=C(c1ccc(F)cc1)c1coc2ccc(Cl)cc2c1=O | -3.26
COc1ccc(-c2nnc(SCc3csc(N)n3)o2)cc1 | 0.776
Nc1c(-c2nc(-c3cccnc3)no2)nnn1-c1ccc(Cl)cc1 | 3.98
Cc1[nH]c2ccccc2c1/C=N/CCc1ccncc1 | -7.3
O=c1[nH]c2sc3c(c2c(=O)n1Cc1ccccc1)CCCC3 | -1.29
COc1ccc2c(c1)CC/C(=C\c1sccc1C)C2=O | 6.11
O=C(Cc1ccc(Br)cc1)N1CCN(C(=O)c2ccco2)CC1 | -3.19
CCn1cnc2cc(NC(=O)c3cccs3)ccc21 | -3.45
Cc1ccc(C(=O)O)cc1-n1cccc1 | 6.73
O=C(COc1ccc(S(=O)(=O)NC2CCCC2)cc1)Nc1ccc(C(F)(F)F)cc1 | 5.66
COc1ccc(OC)c(S(=O)(=O)NCc2cn3ccccc3n2)c1 | -5.37
CN1CCC(=C2c3ccccc3CC(O)c3sccc32)CC1 (stereo not drawn) | -11.2
Cc1cccc(NC(=O)CCCC(=O)O)c1C | -4.35
CC(C(=O)N1CCCc2c1c(=O)oc1ccc(O)cc21)N1CCc2ccccc2C1 (stereo not drawn) | 5.32
Cc1ccc2nc3c(O)n(Cc4ccc(Cl)cc4)cnc-3c2c1 | -0.0235
Cc1cc(NC(=O)c2ccccc2F)no1 | -1.1
Cc1oc(-c2ccsc2)[n+]([O-])c1C | -3.78
CC(=O)Nc1ccc(CN2CCN(c3ccccc3)CC2)cc1 | -4.61
Cc1ccc(-c2noc(CNc3ccccc3)n2)cc1 | 0.161
O=C1C2C(c3ccccc3)OC3(C(=O)c4ccccc4C3=O)C2C(=O)N1C1CCCCC1 (stereo not drawn) | 0.35

Structure (SMILES) | % Inhibition @ 10 uM [%]
CC(C)c1ccccc1OCC(=O)Nc1ccc(S(=O)(=O)NC2CCCCC2)cc1 | -1.35
Cc1c(-c2nsc(NC(=O)c3cccc(F)c3)n2)nnn1-c1cc(F)ccc1F | -1.02
CCOC(=O)c1c(S(=O)(=O)N(Cc2ccccc2)C(C)C)c(C)n(C)c1C | 4.85
O=C(COc1ccc(Br)cc1)Nc1ccc(F)cc1F | 2.13
CCn1c2ccccc2c2cc(CNc3ccc(C)c(C)c3)ccc21 | 1.84
O=C(NCc1ccco1)c1cc2ccccc2c(=O)o1 | -8.71
COc1ccc(Cl)cc1S(=O)(=O)N1CCc2ccccc2C1CN1C(=O)c2ccccc2C1=O (stereo not drawn) | 1.88
COc1ccc(Cn2c(C(=O)O)c(CNCc3ccc(F)cc3)c3ccc(OC)cc32)cc1 | -0.677
COCC(=O)NCCc1nc2ccccc2n1Cc1c(F)cccc1Cl | 2.83
Cc1ccc(N2C(=O)c3ccccc3C2=O)nc1 | 0.708
Cc1ccc(N2CC(C(=O)NCCO)CC2=O)cc1 (stereo not drawn) | -3.23
Cc1cc(N2C(=O)CSC23C(=O)Nc2ccccc23)ccc1Br (stereo not drawn) | -1.79
C=C(C)Cn1c(SCCCc2ccccc2)nc2c1c(=O)[nH]c(=O)n2C | -2.24
CC(C)C(CO)NC(=O)CC(=O)NC(CO)C(C)C (stereo not drawn) | -8.09
Cc1noc(C(=O)N2CCOCC2)c1Cl | -0.0115
Cc1nccc2nc(O)c(C(=O)NCc3ccc4c(c3)OCO4)cc12 | -0.971
Cc1ccc2c(c1C)N[C@@H](c1ccc(S(=O)(=O)N3CCOCC3)cc1)[C@H]1CC=C[C@@H]21 | -0.48
Cc1nc2c(c(C)nn2C)c(C)c1CCC(=O)N1CCC(C)CC1 | -4.47
COc1cccc(OC)c1C(=O)N1CCN(C(=O)c2c(OC)cccc2OC)CC1 | 23.8
Cc1onc(-c2ccccc2)c1C(=O)NC1CC1 | -7
CCC(=O)n1nc(-c2cccnc2)nc1NCc1cccs1 | 0.558
COc1ccc(CN2CCN(C(=O)C3CC(=O)N(C4CCCCCC4)C3)CC2)c(OC)c1OC (stereo not drawn) | 6.32
Cc1ccccc1S(=O)(=O)Cc1ccc(C(=O)NCCN(Cc2ccccc2)C(C)C)o1 | 5.34
O=C(NC1CCCc2ccccc21)C1CCCN(c2nnc(N3CCCC3=O)s2)C1 (stereo not drawn) | -6.58
CCOc1ccc(CCNC(N)=O)cc1OCC | 4.88
N#Cc1conc1-c1ccc(Cl)cc1Cl | -7.02

Structure (SMILES) | % Inhibition @ 10 uM [%]
CC(=O)c1ccc(NC(=O)c2cnn3c(C(F)(F)F)cc(-c4ccco4)nc23)cc1 | -4.62
CC(C)(C)c1ccc(C2C(C#N)=C(N)Oc3ncnc(O)c32)cc1 (stereo not drawn) | 5.18
Cc1cc(NC2CC2)n2cnnc2n1 | -2.57
C=CCn1c(CCCNC(=O)COc2ccccc2)nc2ccccc21 | 7.85
Cc1sc(C)c(-c2cccs2)c1-c1cccs1 | -3.65
CC(C)C[C@H](NC(=O)OCc1ccccc1)C(=O)NC1(C#N)CCN(C2CC2)CC1 | -3.48
COc1ccc(OC)c(C2C(C#N)=C(N)Oc3c2c(C)nn3-c2cccc(Cl)c2)c1 (stereo not drawn) | 1.01
O=C1c2cccnc2C(=O)N1Cc1ccc(S(=O)(=O)N2CCCN(Cc3ccc(F)cc3)C2)cc1 | -6.49
COc1ccc(S(=O)(=O)N2CCN(Cc3ccc4c(c3)OCO4)CC2)c(Cl)c1Cl | 2.95
Cc1[nH]c2ccccc2c1CCNC(=S)NC1CCCCC1 | -5.79
C=CCNc1nc(-c2ccncc2)cs1 | -8.19
OC1CCN(Cc2cccc(F)c2)CC1 | -1.93
COCCCNC(=O)CCSc1ccc(C)cc1 | 22.8
CCCc1cc(=O)oc2cc(O)ccc12 | -0.744
CCOc1ccc(NC(=O)c2ccc(C(=O)O)cc2C(=O)O)cc1 | 4.08
CCCn1c(=O)c2sccc2n2c(CCCC(=O)NCc3cccnc3)nnc12 | 5.22
CC12CN3CC(C)(CN(C1)C3c1cc(Br)ccc1O)C2 (stereo not drawn) | 2.6
Cc1cc(C)n(-c2cc(O)c(-n3nc(C)cc3C)cc2O)n1 | -5.63
COc1cccc(OC)c1C(=O)Nc1nnc(C2CCCCC2)s1 | 0.222
CC(/N=c1/c(-c2ccc(Cl)cc2)c(O)c1=O)c1ccc2c(c1)OCCO2 (stereo not drawn) | 0.967
O=C(NCCc1ccc(Cl)cc1)C1C2C=CC3(CN(Cc4ccccc4Cl)C(=O)C13)O2 (stereo not drawn) | 6.2
COc1ccc(CN2C(=O)c3cccnc3C2=O)cc1S(=O)(=O)NCc1ccc2c(c1)OCO2 | -4.02
O=C(Nc1ccc2[nH]ncc2c1)/C(=C/c1ccccc1)NC(=O)c1ccccc1 | -0.996
CCOc1cccc(C2C(C(=O)c3ccc(C)o3)=C(O)C(=O)N2Cc2ccccc2)c1 (stereo not drawn) | -5.26
